# Reference: the supplement of paper PMC11417369
# This is one part of the list.
# Test system: PF3D7_0420300 AP2 domain 1 (GST-tagged)
# Assay: gcPBM binding intensity (ln(normalized median fluorescence intensity)); higher = stronger DNA binding
# In short: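 An Agilent 4 × 180k array of primer-extended double-stranded 36-bp intergenic genomic probes, with negative controls, was incubated for 1 h with GST-tagged P. falciparum DNA-binding domains expressed in E. coli. Alexa488 anti-GST antibody detected bound protein, scanned at 488 nm. Binding intensity is the highest Masliner-normalised natural-log median intensity across replicate spots of either probe orientation.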
row,Sequence,gcPBM binding intensity (ln)
1,TACAATTTATGACACACACACAATAATACCTATATA [CACACA_site6704],9.95
2,AAAAAAAAAAAACACACACACACACTAGTACATACA [CACACA_site4551],10.2
3,TATATATATATATGTGCACACATAAAGATATTATTT [CACACA_site3734],9.55
4,ATGAAATATGCACAGTGTACTTTTATGAGGAACATA [XGTACX_site426],9.27
5,TTTTTAATACAAAAAAAATAATATGTTATATTTCAA [CACACA_negctrl_site35],8.81
6,TGCCCTTTGGTTATAACACACATGCACACGTAAATA [CACACA_site7750],9.72
7,AATTAACCGTGACACACACACATATAAATATAAATA [CACACA_site7790],9.86
8,GGGAATATATAAGATACACACACAAATTAAATATAA [CACACA_site8898],9.87
9,TATATATATATATATACACACACACCCACCAAAGCG [CACACA_site7904],9.79
10,CACAAATAAATATTCACACATATATGTCTTATATAT [CACACA_site5323],9.29
11,ATCAAATTTTTGTTATGTACACAATCATTTAATAAA [XGTACX_site810],9.12
12,ATTACAATAAATTCGTGTACATGATACCGCCGCTAC [XGTACX_site8997],9.21
13,TAATTATTATTAAATACACACACATACCTCCATGTT [CACACA_site9134],9.87
14,AAAAAAAAAAAATAGGTGCGTGTTACTTTTGTATGC [GTGCAC_site9524],9.26
15,TATATATATATATATGTGCGCATATATTTTTTTGTA [GTGCAC_site9983],9.27
16,ACAAAATTTACAAAATGTACAAAATATACAAAATAT [XGTACX_site6465],9.19
17,CATGAGGTATAAAAGGTGCAAATTAATGAGAACATT,9.3
18,TTATATCAAGGGAATGCATGCATATCGTTTTGTATT [TGCATGCA_site327],9.35
19,AATAATATACATATATATATTATATTGTAATTTTGT [TGCATGCA_negctrl_site1],9.18

row,Sequence,gcPBM binding intensity (ln)
1,ACTAGACAAAATATAATGCACACTATTATTTTTATT [CACACA_site2726],9.45
2,TATTCTTATATATATACACACACAAAATATCTACAA [CACACA_site8144],9.82
3,TTGCATTGATCAAACATACACACATGGTTAATAAAA [CACACA_site2084],9.34
4,TATTTCTCACTGTATGGTACAGATATAAATTTTTAT [XGTACX_site8776],9.12
5,TAACAAGGTTTATATGCATGCAAACATAACCAAAAA [TGCATGCA_site824],9.09
6,AATGGGTAAACATACACACACACATCTATATTTATA [CACACA_site7025],10.1
7,CTTTGCCTTAAAAAGGAACACACATGCTTTTTTTAG [CACACA_site8219],9.22
8,TACTATATCATTTATTGTACAATATTTCTTCAGAAA [XGTACX_site1008],9
9,TATAAAAGACTAAATATTATAGAAATATAAATATAA [TGCATGCA_negctrl_site237],8.98
10,ATATATATGTATAATCGTACAGTTAACGTATTCTTA [XGTACX_site5649],9.26
11,AAACAGATAAATAAAAGTACACATTAAAAGGTAGCA [XGTACX_site4150],9.7
12,GGATTTTAATGAACACGTACATAAAATTAAATAAAT [XGTACX_site7023],8.98
13,TAATTAATTTCTTTACGTACATAATTAATATATATA [XGTACX_site7372],9.14
14,GGGAGGATAGTTCACAGTACCCAGGAAATCTACGGA [XGTACX_site2553],9.1
15,GGTTCATAATATGGTTGTACATAAATATATATATAT [XGTACX_site7583],9.51
16,TTTATACATTTATATTGTACTAATTCGATTTTATAT [XGTACX_site5424],9.34
17,AAAGAAAAAGAAAAAGAAAAATTAGAATATAAAATA [CACACA_negctrl_site792],9.12
18,AATGATCATATATACACACACACAAAAAAAAAAAAA [CACACA_site4009],10
19,ATAAGAAATGTAACTTGTACATAAGGATATATATTT [XGTACX_site236],9.26

row,Sequence,gcPBM binding intensity (ln)
1,TAATAATAAAAAAATAGTACATAAATAAAAATAATA [XGTACX_site4774],9.48
2,CATTTATATAAATACACACACACAAAAAAAAAAAAA [CACACA_site5459],9.99
3,TTTTTTTTTTTAAGTTCACACATAAATTCGATTTAC [CACACA_site5057],8.98
4,ACCGTTTTTGTGTAATGTACAAAATTTCTGACAGTG [XGTACX_site4999],9.23
5,AAAGGAAAATTAAAAAGTACACATTTGAAAAAAAAA [XGTACX_site2724],9.23
6,ATAATTTGTAAAAGGAGTACAAAACCATACTTTTTT [XGTACX_site6076],9.08
7,ATGTATTTAATAAGAACACACATATATTTAATTTAA [CACACA_site5606],9.3
8,TATAAAATAAAAAATAAATATCTATATATATATATA [TGCATGCA_negctrl_site351],8.94
9,ATAAAGCACACCGACACACACATATTTATATTTATA [CACACA_site6620],9.79
10,TTGTGTTATCCTTTTTTAGATCAACTATTTTTATTC [CACACA_negctrl_site145],9.34
11,ATTTATAAAATTAATGCACACATCAGCATTTATAAA [CACACA_site1025],9.11
12,TAAATACATAGATGTACACACATTACAGATGTACAT [CACACA_site4692],9.49
13,ATTTATTTCTTGTTAGTGCACTTTCTTTGGTAAAAT,9.36
14,TTAAAATGTTGTAACGTGCACATTTTGTGGAAATCA [GTGCAC_site9559],9.07
15,TTATAATTGTAAGGTAGTACATATAAATCAAATAAT [XGTACX_site7190],9.37
16,TATACAGATGGACACACACACATATATATATATATA [CACACA_site5272],9.89
17,ATACAAACAATTATTTGTACATAAAATTTTTTTTTT [XGTACX_site90],9
18,ATGAATCTTTTAAAAAGTACATGTGAAAAAAATAAA [XGTACX_site49],9.01
19,TTTTTTTGTTAAAAGGTGCTAATATATATAAGTGCT,9.03
